# This is one part of the list. At the low end of the ranking, values are background and their order means little.
# Molecular target: SIX1 homeodomain (reference allele) (UniProt Q15475)
# Assay: universal protein binding microarray
# Settings: Universal all-10-mer PBM (8x60K, AMADID 030236), 300 nM GST-tagged protein, Alexa Fluor 488 anti-GST; buffer, salt, pH and temperature not stated; high values mean tight binding; most listed sequences are background and not binding sites; double strand, one strand shown
row,Sequence,binding signal
1,CCTGGCTC,0.0769 E-score
2,GGTATTTA,0.191 E-score
3,GCTAATAC,0.244 E-score
4,ACGGTATG,0.157 E-score
5,AAGCTCGT,-0.199 E-score
6,CATCCCCG,0.145 E-score
7,CTGGCACC,0.0202 E-score
8,GGCAGGAA,-0.232 E-score
9,ATATATCG,0.372 E-score
10,CGATTCTC,0.0404 E-score
11,TATGACGA,-0.0657 E-score
12,AATGTATC,0.363 E-score
13,CTAATGTC,-0.0984 E-score
14,ATCTTCGC,0.14 E-score
15,AGACATGA,0.173 E-score
16,GCATAGCC,-0.106 E-score
17,AGTCGGTA,0.00167 E-score
18,AGGCGGGG,0.157 E-score
19,AAGTTCGA,-0.184 E-score
20,CTCGCTAA,0.111 E-score
21,AAGATTGT,-0.142 E-score
22,ATCTAATC,0.255 E-score

row,Sequence,binding signal
1,AGAGCCGC,-0.236 E-score
2,CAAGTACC,-0.00547 E-score
3,AGGGCAGC,-0.0735 E-score
4,CAGCAGCC,-0.206 E-score
5,CTCCTAGA,0.112 E-score
6,AGAAACAC,-0.00396 E-score
7,CATCGACC,-0.047 E-score
8,GGGTATAA,0.375 E-score
9,CCGGTGCC,-0.113 E-score
10,AAAAAACC,-0.123 E-score
11,ATAGCAAC,-0.00144 E-score
12,CCCTTGCG,-0.182 E-score
13,AGCGCGGA,0.0543 E-score
14,ATTTCAGA,-0.106 E-score
15,CTCACGCC,0.0894 E-score
16,AATATAAG,0.15 E-score
17,CCACCTGA,0.0787 E-score
18,GATTTCAA,-0.157 E-score
19,AACAACTC,-0.193 E-score
20,CCCGAGGC,-0.00664 E-score
21,CCATTCGC,-0.18 E-score
22,AACACGAA,0.0695 E-score

row,Sequence,binding signal
1,AGTTTAAT,-0.0927 E-score
2,CTAAGCAC,-0.00322 E-score
3,CACACGGC,-0.199 E-score
4,AAATGGTA,-0.0836 E-score
5,AAAGATTG,-0.231 E-score
6,GAGACAAC,0.0738 E-score
7,TAACGGCA,-0.242 E-score
8,CTGCTTGA,0.0764 E-score
9,ATTCACAC,0.0491 E-score
10,ACCTCAAT,-0.123 E-score
11,AGAACTAT,0.0937 E-score
12,AATTACGC,-0.176 E-score
13,ACGCTTGA,-0.0476 E-score
14,AACTTATA,0.0614 E-score
15,CCAATGGG,-0.0962 E-score
16,ATGCTTGC,-0.0173 E-score
17,CTCTAACC,-0.201 E-score
18,CATCTATC,0.211 E-score
19,CTGGCCAG,-0.219 E-score
20,ATCGATGC,0.0823 E-score
21,TCAGTTAA,-0.0668 E-score
22,CCTATATC,0.352 E-score

row,Sequence,binding signal
1,ACAGTCGT,-0.0838 E-score
2,CTGTTCAC,-0.146 E-score
3,CGGACGCC,-0.241 E-score
4,ATTTTCAG,-0.155 E-score
5,GATTTCGA,-0.278 E-score
6,CACGCCAC,-0.121 E-score
7,TCATAAAA,-0.0712 E-score
8,GAGCGAAA,-0.139 E-score
9,CCTCGTAC,0.089 E-score
10,ACGACAAA,-0.184 E-score
11,GATATCTA,0.392 E-score
12,GATGACAA,-0.0562 E-score
13,CTCACTCA,-0.0219 E-score
14,TACGCCAA,-0.105 E-score
15,ATAACTAG,0.097 E-score
16,CCGGCCAA,-0.11 E-score
17,GTCCGCTA,-0.0284 E-score
18,TCACAAAA,-0.13 E-score
19,GCCGTTAC,-0.167 E-score
20,GCCGTTCA,-0.171 E-score
21,CGCTCTGC,-0.131 E-score
22,ATACGAAT,0.182 E-score

row,Sequence,binding signal
1,CTGGTCAC,-0.191 E-score
2,ACAGGGTA,0.267 E-score
3,CCTCAAAG,-0.0687 E-score
4,GAGGTCGC,-0.156 E-score
5,AGCGCGTG,-0.263 E-score
6,TGAGCCCA,0.0713 E-score
7,ATTCTTCG,0.0829 E-score
8,ACATGCAC,0.0164 E-score
9,CTCGACGA,-0.0931 E-score
10,GGTGCGTA,0.0415 E-score
11,CGAAGTAG,-0.152 E-score
12,CTCGAAGC,-0.188 E-score
13,ATTGATTC,0.102 E-score
14,ATCAAATA,0.239 E-score
15,GGCCTAAA,-0.249 E-score
16,TCCCGCCA,-0.0222 E-score
17,GAGGCCGA,-0.236 E-score
18,AGACAGCA,0.00034 E-score
19,ATATAAAC,0.0704 E-score
20,ATACTCGA,0.249 E-score
21,CTAAGAAC,-0.0504 E-score
22,AGATCAGC,0.273 E-score

# From publication PMC10668032
